PMC10540217 (2023)

What was measured:
SENP1 = target: T1, SENP1 (Homo sapiens (Human), UniProt Q9P0U3); test: covalent activity-based probe reaction, gel; covalent reaction through C-terminal propargylamine warhead on SUMO
T1 chain: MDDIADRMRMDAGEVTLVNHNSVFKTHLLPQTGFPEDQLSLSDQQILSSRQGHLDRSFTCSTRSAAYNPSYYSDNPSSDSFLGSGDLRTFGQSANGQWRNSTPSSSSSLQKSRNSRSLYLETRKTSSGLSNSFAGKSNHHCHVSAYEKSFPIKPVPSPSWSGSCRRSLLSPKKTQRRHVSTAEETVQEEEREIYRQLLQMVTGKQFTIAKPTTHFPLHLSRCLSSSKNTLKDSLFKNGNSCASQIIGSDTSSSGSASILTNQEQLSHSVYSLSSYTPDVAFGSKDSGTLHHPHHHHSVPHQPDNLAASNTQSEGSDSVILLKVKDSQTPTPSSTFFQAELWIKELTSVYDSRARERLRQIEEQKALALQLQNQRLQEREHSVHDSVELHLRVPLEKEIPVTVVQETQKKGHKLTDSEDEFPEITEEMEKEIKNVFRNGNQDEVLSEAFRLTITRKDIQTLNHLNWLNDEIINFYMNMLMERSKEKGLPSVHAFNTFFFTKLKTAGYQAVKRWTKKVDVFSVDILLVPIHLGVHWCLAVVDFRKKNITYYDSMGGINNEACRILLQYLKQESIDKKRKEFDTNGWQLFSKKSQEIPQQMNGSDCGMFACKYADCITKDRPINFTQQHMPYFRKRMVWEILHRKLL

USP2 = target: T2, USP2 (Homo sapiens (Human), UniProt O75604); test: covalent activity-based probe reaction, gel; readout is covalent reaction with C-terminal propargylamine warhead on SUMO
T2 chain: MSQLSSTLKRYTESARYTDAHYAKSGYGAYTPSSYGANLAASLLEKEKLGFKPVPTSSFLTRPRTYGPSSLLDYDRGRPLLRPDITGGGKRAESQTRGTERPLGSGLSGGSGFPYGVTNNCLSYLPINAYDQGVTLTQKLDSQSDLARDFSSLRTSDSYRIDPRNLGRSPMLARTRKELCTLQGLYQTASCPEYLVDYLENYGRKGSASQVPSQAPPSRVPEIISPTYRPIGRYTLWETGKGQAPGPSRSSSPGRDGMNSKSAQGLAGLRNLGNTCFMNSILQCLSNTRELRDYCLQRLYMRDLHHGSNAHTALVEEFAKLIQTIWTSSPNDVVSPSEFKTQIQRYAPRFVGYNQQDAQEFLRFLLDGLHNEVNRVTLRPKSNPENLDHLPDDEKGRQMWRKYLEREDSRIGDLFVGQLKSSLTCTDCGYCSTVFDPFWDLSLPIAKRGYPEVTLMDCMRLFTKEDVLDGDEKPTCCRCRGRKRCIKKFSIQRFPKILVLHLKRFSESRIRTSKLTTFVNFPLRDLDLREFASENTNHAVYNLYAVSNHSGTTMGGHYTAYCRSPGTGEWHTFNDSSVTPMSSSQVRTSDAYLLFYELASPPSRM

USPL1 catalytic domain = target: T3, USPL1 catalytic domain (Homo sapiens (Human), UniProt Q5W0Q7); test: covalent activity-based probe SDS-PAGE shift, thermal shift, crystal structure; covalent reaction through C-terminal propargylamine warhead on SUMO with the USPL1 catalytic cysteine
T3 chain: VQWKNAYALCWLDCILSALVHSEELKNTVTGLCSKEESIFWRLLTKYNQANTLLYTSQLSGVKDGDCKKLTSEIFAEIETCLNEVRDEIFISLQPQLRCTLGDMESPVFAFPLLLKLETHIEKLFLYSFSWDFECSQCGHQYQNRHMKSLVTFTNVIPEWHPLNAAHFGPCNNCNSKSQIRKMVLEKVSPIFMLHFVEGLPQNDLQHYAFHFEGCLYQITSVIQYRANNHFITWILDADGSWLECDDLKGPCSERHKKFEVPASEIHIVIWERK

B1: ΔN-SUMO2/3-PA probe (protein)
chain: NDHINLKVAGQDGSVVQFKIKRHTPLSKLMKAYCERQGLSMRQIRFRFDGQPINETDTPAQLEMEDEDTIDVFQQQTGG
modifications: propargylamine warhead at the C-terminus
binding result (SENP1): binds
binding result (USP2): no binding
binding result (USPL1 catalytic domain): binds
